Experimental findings from PubChem BioAssay AID360 (National Center for Advancing Translational Sciences (NCATS), 2006) are described below.

In all, about 48,000 compounds went through this assay and about 550 (1.1%) were called active. About 4% were inconclusive and are not listed. Cut-off read from the data, not from the text of the source: active = potency below about 15 µM; inconclusive = mostly about 16 µM to 33 µM; inactive = weaker than that. The list shows a part of the results.
Potency is the fitted concentration of half-maximal effect.

Chain of UniProt P04062 (P04062 whole entry, looked up): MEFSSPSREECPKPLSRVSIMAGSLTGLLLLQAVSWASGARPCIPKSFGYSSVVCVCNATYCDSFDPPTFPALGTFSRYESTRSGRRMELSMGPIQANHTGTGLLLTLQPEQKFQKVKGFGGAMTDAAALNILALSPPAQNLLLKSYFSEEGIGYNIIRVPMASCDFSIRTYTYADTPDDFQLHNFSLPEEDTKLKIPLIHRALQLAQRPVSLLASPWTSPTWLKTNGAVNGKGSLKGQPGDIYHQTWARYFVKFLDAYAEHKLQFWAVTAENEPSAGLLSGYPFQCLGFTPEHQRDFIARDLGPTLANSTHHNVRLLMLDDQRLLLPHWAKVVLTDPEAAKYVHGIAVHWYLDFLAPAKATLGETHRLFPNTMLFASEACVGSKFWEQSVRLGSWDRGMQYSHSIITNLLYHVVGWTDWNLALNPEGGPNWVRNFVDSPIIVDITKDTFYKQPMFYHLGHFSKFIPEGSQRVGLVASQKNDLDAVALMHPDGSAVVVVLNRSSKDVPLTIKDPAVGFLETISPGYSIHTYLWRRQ

This assay concerns the target Lysosomal acid glucosylceramidase (Homo sapiens) (UniProt P04062). In words: Glucocerebrosidase.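 Note: the screen sought inhibitors.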 The note with it: purified enzyme, resorufin glucoside fluorescence (screen aimed at inhibitors), 20 min. An outline of the steps:
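Compounds titrated against 0.2 nM normal enzyme, 30 uM resorufin beta-D-glucopyranoside substrate, citrate/phosphate buffer with taurocholate and tween-20, pH 5.9. Reaction ran 20 min at room temperature; fluorescence (Ex 548/Em 600) gave AC50.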
In the case of `CC1CN(C(=O)c2cc3c(s2)CCC3)CC(C)O1` (configuration not stated), the Potency was inactive: > 76.9 µM.

As to `COc1ccc2oc(=O)c(C(=O)N3CCCc4ccccc43)cc2c1`, the Potency is inactive: > 76.9 µM.

Consider `COC(=O)[C@H](CCSC)NC(=O)NCc1cccs1`, for which the Potency is inactive: > 76.9 µM.

Turning to `COCCN1C(=O)C(=O)/C(=C(/O)c2ccc3c(c2)OCCO3)C1c1ccc(C(=O)OC)cc1` (configuration not stated), the Potency is inactive: > 76.9 µM.

As for `CCN1CCCC(OC(=O)Nc2ccccc2)C1` (configuration not stated), the Potency was inactive: > 76.9 µM.

Take `COc1ccc(OC)c(C(c2nnnn2Cc2ccccc2)N2CCN(C3CCCCC3)CC2)c1` (configuration not stated): the Potency is inactive: > 76.9 µM.

For `CCn1c(-c2ccc(OC)c(OC)c2)n[nH]c1=S`, the Potency was inactive: > 76.9 µM.

As for `COc1ccccc1Oc1nc2c(c(=O)n(Cc3ccccc3F)c(=O)n2C)n1C`, the Potency is inactive: > 76.9 µM.

With `Cc1ccc(S(=O)(=O)N2CCC(C(=O)NCCCN3CCCCCC3)CC2)cc1`, the Potency is inactive: > 76.9 µM.

Take `COCCn1c(COc2ccc(Cl)cc2)nnc1SCC(N)=O`: the Potency is inactive: > 76.9 µM.

For `O=C(OCC(=O)c1ccc[nH]1)c1ccc(S(=O)(=O)N2CCCCC2)cc1`, the Potency was inactive: > 76.9 µM.

For the compound `CCOc1nc(N(C)C)nc(-n2nnc(C(C)=O)c2C)n1`, the Potency is inactive: > 76.9 µM.

Take `COc1ccc(-n2nc(C(=O)Nc3ccc4c(c3)OCO4)c3ccccc3c2=O)cc1`: the Potency was inactive: > 76.9 µM.

`CCCCSc1nnc2nc(C)cc(C)n12`: the Potency is inactive: > 76.9 µM.

As for `C=CCC(CC=C)(C(=O)O)c1ccccc1`, the Potency was inactive: > 76.9 µM.

For `CS(=O)(=O)N1CCN(CC2CC3C=CC2C3)CC1` (configuration not stated), the Potency was inactive: > 76.9 µM.

For the compound `Cc1nc2ccc(S(=O)(=O)NC(CC(C)C)C(=O)O)cc2s1` (configuration not stated), the Potency was inactive: > 76.9 µM.

Take `Cc1cc(C(=O)CSc2nnc(C3COc4ccccc4O3)n2C)c(C)n1-c1ccc(F)cc1` (configuration not stated): the Potency was inactive: > 76.9 µM.

As for `COCCCn1c(=O)c2ccccc2c2ccccc2c1=O`, the Potency is inactive: > 76.9 µM.

Consider `Cc1nc2sc3c(c2c2nnc(SCC(=O)NCc4ccco4)n12)CCCC3`, for which the Potency was inactive: > 76.9 µM.

With `CN1C(=O)c2ccccc2N(C)C1c1ccc2c(c1)OCO2` (configuration not stated), the Potency is inactive: > 76.9 µM.

Regarding `Cc1ccc([C@@H]2C3COCC=C3C(C#N)=C(N)C2(C#N)C#N)o1` (some centres not stated), the Potency entry was “inactive”.

As for `Nc1nc2nonc2nc1N1CCCCC1`, the Potency was inactive: > 76.9 µM.

On to `O=C(c1ccco1)N1CCN(CC(=O)N2CCCc3c2c(=O)oc2ccc(O)cc32)CC1`, for which the Potency was inactive: > 76.9 µM.

Regarding `CCn1nnnc1NCc1ccc(N2CCCC2)cc1`, the Potency was inactive: > 76.9 µM.

`CCOC(=O)c1cccc(NC(=O)C2CCN(S(=O)(=O)c3cccs3)CC2)c1`: the Potency result was “inactive”.

As to `CCc1nnc(NC(=O)CSc2nnc3c4ccccc4n(C)c3n2)s1`, the Potency was inactive: > 76.9 µM.

Take `CCOCCn1c(CN2CCN(c3ccc(F)cc3)CC2)nc2c1c(=O)n(C)c(=O)n2C`: the Potency is inactive: > 76.9 µM.

Regarding `Cc1cc2ncn(C(=O)N3CCCCC3)c2cc1C`, the Potency was inactive: > 76.9 µM.

In the case of `Cc1ccc(S(=O)(=O)N2CCC(C(=O)NCCN3CCCCCC3)CC2)cc1`, the Potency is inactive: > 76.9 µM.

For `O=C(CSc1nc(-c2ccco2)cc(C(F)(F)F)n1)Nc1ccc2c(c1)CCC2`, the Potency is inactive: > 76.9 µM.

For the compound `CC(C)=CC(=O)NCCc1ccccc1`, the Potency is inactive: > 76.9 µM.

With `CCN(c1cccc(C(F)(F)F)c1)S(=O)(=O)c1ccc2c(c1)CCN2C(C)=O`, the Potency was inactive: > 76.9 µM.

Take `Cc1cnc(C(=O)Nc2ccc(N3CCOCC3)cc2)cn1`: the Potency is inactive: > 76.9 µM.

Take `CCOC(=O)c1cnc(-n2nc(C)cc2C)nc1N(C)C`: the Potency was inactive: > 76.9 µM.

With `Cn1c(CNC(=O)Nc2ccccc2Cl)nnc1SCc1ccccc1`, the Potency is inactive: > 76.9 µM.

Regarding `COC(=O)c1[nH]c2cccc(OC)c2c1NC(=O)CCN1CCN(c2cccc(Cl)c2)CC1`, the Potency was inactive: > 76.9 µM.

With `COCCNC(=O)c1ccc(Cl)c(Cl)c1`, the Potency was inactive: > 76.9 µM.

For the compound `COc1ccc(NC(=O)c2cccc(Cn3cc(Br)cn3)c2)cn1`, the Potency was inactive: > 76.9 µM.

Turning to `CCOc1ccc(OCC)c(NC(=O)CCn2c(=O)oc3ccccc32)c1`, the Potency is inactive: > 76.9 µM.

Consider `CC(=O)NC(CC(=O)Nc1ccc(S(=O)(=O)N2CCCC2)cc1)c1ccccc1` (configuration not stated), for which the Potency is inactive: > 76.9 µM.

Turning to `CCOc1ccc(-c2cc(CCCC(=O)NCCc3ccc(OC)c(OC)c3OC)no2)cc1`, the Potency is inactive: > 76.9 µM.

As for `Cc1cc(NS(=O)(=O)c2ccccc2)n(-c2ccccc2)n1`, the Potency was inactive: > 76.9 µM.

For `COc1ccc(-c2cc(-c3cccs3)c(C#N)c(SCC(=O)NCc3ccco3)n2)cc1`, the Potency is inactive: > 76.9 µM.

Regarding `CCOC(=O)CSc1nnc(CSc2nc(C)cc(C)n2)n1Cc1ccco1`, the Potency was inactive: > 76.9 µM.

As for `Cc1cc(NC(=O)CCC(=O)N(CC(=O)NC2CCCC2)Cc2ccc(F)cc2)no1`, the Potency was inactive: > 76.9 µM.

For `CSc1ccc(/C=N/n2nnnc2N)cc1`, the Potency is inactive: > 76.9 µM.

Regarding `CCOC(=O)CC1C(=O)NCCN1C(=O)Nc1ccccc1` (configuration not stated), the Potency is inactive: > 76.9 µM.

As for `Cc1ccc(CN(Cc2cccnc2)C(=O)CN2C(=O)COc3ccccc32)o1`, the Potency is inactive: > 76.9 µM.

Turning to `COCC(C)n1c(COc2ccccc2F)nnc1SCc1c(C)noc1C` (configuration not stated), the Potency is inactive: > 76.9 µM.

As for `CN(CC(=O)NCc1cccc(F)c1)C(=O)c1ccco1`, the Potency was inactive: > 76.9 µM.

`COC(=O)CSc1nc(N)c(C#N)c(C(C)C)c1C#N`: the Potency was inactive: > 76.9 µM.

For `O=C(CSc1nccn1-c1ccc(F)cc1)Nc1ccc2c(c1)OCO2`, the Potency is inactive: > 76.9 µM.

Take `CCOc1ccccc1C(=O)N(Cc1ccco1)C1CCS(=O)(=O)C1` (configuration not stated): the Potency is inactive: > 76.9 µM.

As for `COC(=O)CSc1nsc(SCC(=O)OC)n1`, the Potency is inactive: > 76.9 µM.

On to `O=C1CCCN1CCC1CCN(C2CC(=O)N(Cc3ccc(N4CCCC4=O)cc3)C2=O)CC1` (configuration not stated), for which the Potency is inactive: > 76.9 µM.

For the compound `Cc1ccc(C)c(N(C(=O)Cn2nnc(-c3cccs3)n2)C(C(=O)NC2CC2)c2ccc(C)o2)c1` (configuration not stated), the Potency was active: 12.1 µM.

Turning to `O=C(Cn1c(C(=O)NCc2ccco2)cc2sccc21)c1ccccc1`, the Potency was inactive: > 76.9 µM.

For `O=c1[nH]c(Cn2nnc(-c3ccccc3)n2)nc2scc(-c3ccccc3)c12`, the Potency is inactive: > 76.9 µM.

In the case of `Cc1cnc(NC(=O)CSc2nnc(Cc3ccccc3)o2)s1`, the Potency is inactive: > 76.9 µM.

For `Cc1cc(=S)cc(C)n1CCCn1ccnc1`, the Potency was inactive: > 76.9 µM.

On to `CCOC(=O)c1c(NC(=O)c2cccs2)sc(C(=O)N2CCOCC2)c1C`, for which the Potency was inactive: > 76.9 µM.

For `COC(=O)CSc1nc(NCC(C)C)nc(N2CCOCC2)n1`, the Potency is inactive: > 76.9 µM.

In the case of `Cc1cccnc1NCc1ccc(O)c2ncccc12`, the Potency was inactive: > 76.9 µM.

For `COc1ccc(S(=O)(=O)Nc2ccc(C(F)(F)F)cc2)cc1OC`, the Potency was inactive: > 76.9 µM.

As for `COc1ccc(-c2noc(COc3ccc4c(c3)OCO4)n2)cc1OC`, the Potency is inactive: > 76.9 µM.

In the case of `CC(C)NC(=O)COC(=O)c1ccc(O)cc1`, the Potency was inactive: > 76.9 µM.

`O=C(CCC1CCCCC1)Nc1c[nH]c(=O)[nH]c1=O`: the Potency is inactive: > 76.9 µM.

As to `O=C(CSc1nc2ccccc2c(=O)n1Cc1ccco1)c1ccccc1`, the Potency is inactive: > 76.9 µM.

As for `Cc1ccccc1-c1nnc(SCc2ccccc2)o1`, the Potency was inactive: > 76.9 µM.

In the case of `Cc1cc(=O)n2nc(N3CCCC(C(=O)NCCCN4CCc5ccccc5C4)C3)sc2n1` (configuration not stated), the Potency is inactive: > 76.9 µM.

As for `COC(=O)c1ccc2c(=O)[nH]c(CN3c4ccccc4CC3C)nc2c1` (configuration not stated), the Potency was inactive: > 76.9 µM.

`Cc1cc(NC(=O)c2cccnc2)ccc1NC(=O)c1ccco1`: the Potency was inactive: > 76.9 µM.

Turning to `O=C(O)CSc1ncn[nH]1`, the Potency is inactive: > 76.9 µM.

As for `CCOc1ccccc1-c1cc(-c2ccc(OC)cc2)nc2c1c(=O)n(C)c(=O)n2C`, the Potency was inactive: > 76.9 µM.

On to `O=C(NC1CCCC1)c1cnn2c(C(F)(F)F)cc(-c3ccc4c(c3)OCO4)nc12`, for which the Potency was inactive: > 76.9 µM.

As to `O=C(NC1CCC(NC(=O)C2CCCO2)CC1)C1CCCO1` (configuration not stated), the Potency was inactive: > 76.9 µM.

For the compound `Cc1c(C)c2ccc(OCc3ccc(C(=O)O)o3)c(C)c2oc1=O`, the Potency is inactive: > 76.9 µM.

In the case of `Cc1ccc(S(=O)(=O)N2CCC(C(=O)N[C@@H](C)C(=O)NC3CCCCC3)CC2)cc1`, the Potency was inactive: > 76.9 µM.

As to `CCn1c(C(O)c2ccc3c(c2)OCO3)nc2ccccc21` (configuration not stated), the Potency is inactive: > 76.9 µM.

For the compound `CCOc1ccccc1NC(=O)CSc1c(C)n[nH]c1C`, the Potency was inactive: > 76.9 µM.

In the case of `Cc1ccc(CNC(=O)c2ccc(Cn3nc(C)c(Cl)c3C)o2)cc1`, the Potency was inactive: > 76.9 µM.

For `COCCn1c(C)cc2c(c1=O)C(c1ccccc1F)C(C#N)=C(N)O2` (configuration not stated), the Potency is inactive: > 76.9 µM.

With `O=C(Nc1ccc(Cl)cc1)N1CCSCC1`, the Potency is inactive: > 76.9 µM.

Consider `Cc1cnc(C(=O)OCC(=O)Nc2cccc(Cl)c2)cn1`, for which the Potency was inactive: > 76.9 µM.

Take `CC1(C)CC(NS(=O)(=O)c2ccc(S(=O)(=O)N3CCOCC3)cc2)CCO1` (configuration not stated): the Potency was inactive: > 76.9 µM.

As to `Cc1nc2c(C(=O)NCCC3=CCCCC3)c[nH]n2c(=O)c1Cl`, the Potency is inactive: > 76.9 µM.

On to `Oc1ccc2c(c1)oc1cc(O)ccc12`, for which the Potency was inactive: > 76.9 µM.

Regarding `CCCS(=O)(=O)N1CCCC(C(=O)N2CCN(c3ccccc3)CC2)C1` (configuration not stated), the Potency is inactive: > 76.9 µM.

In the case of `O=S(=O)(Nc1nc2ccccc2nc1Nc1ccc2c(c1)OCCO2)c1cccs1`, the Potency was inactive: > 76.9 µM.

`CCOC(=O)CSc1nc2ccccc2n2cnnc12`: the Potency is inactive: > 76.9 µM.

Turning to `CCCn1c(SCC(=O)Nc2nnc(-c3ccccc3)s2)nnc1-c1ccccn1`, the Potency is inactive: > 76.9 µM.
